Assay results taken from the supplement of paper PMC11417369.
This is one part of the list.

System: PF3D7_0420300 AP2 domain 1 (GST-tagged)
Test: gcPBM binding intensity (ln(normalized median fluorescence intensity)); higher = stronger DNA binding
How it was run: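 Each value is the highest Masliner-normalised natural-log median intensity across replicate spots of either orientation of a probe. The probes were primer-extended double-stranded 36-bp intergenic genomic sequences on an Agilent 4 × 180k array, alongside negative controls, exposed for 1 h to GST-tagged P. falciparum DNA-binding domains expressed in E. coli. Bound protein was picked up with Alexa488 anti-GST antibody and scanned at 488 nm.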

Row | Sequence | gcPBM binding intensity (ln)
1 | ATTAAAAAAGAATATACACACCAAAACTGTTTGTTA [CACACA_site4687] | 9.21
2 | TTTTTAAATATAAACAAAAAAAAAAAATATATCAAT [XGTACX_negctrl_site328] | 9.29
3 | ATCATATTTATGTTGGTGCATTATGCATGGATTTTA [GTGCAC_site9795] | 9.2
4 | ATTTTTATTTTTATTTGTACTTATATATTCTTAAGC [XGTACX_site4122] | 9.31
5 | AATACCCAAGGACACACACACACATATATATATATA [CACACA_site8345] | 10.2
6 | ATAATATAAATACAAACACACAATTGTGTCCACATT [CACACA_site6920] | 9.72
7 | GGAAAATGAAAAACAAAAAAAAAAAAAAAAAAATGA [TGCATGCA_negctrl_site432] | 9.37
8 | ATATTCCTACATACAACACACGACGTTCTCATAAGA [CACACA_site231] | 9.39
9 | AAAAATAGACAAAAGAGTACAAGAAAAAAAGGGTTC [XGTACX_site7843] | 9.86
10 | ACATCTGTTATTTGTGGTACTAAAAAAATATATAGT [XGTACX_site8322] | 9.17
11 | TCTTTTTAGATATATACACACCGTGTCTACCTATAC [CACACA_site7551] | 9.41
12 | TTTTAAAGTTGTGAGCTTCATTTTTATTTATATGTA [CACACA_negctrl_site1505] | 9.23
13 | TTACAATTAATAAAGTGTACTTAACTATTATATATA [XGTACX_site481] | 9.01
14 | TTGATCTATAATAATACACACTTACATAATTAATTA [CACACA_site6273] | 9.17
15 | ATATATATATATGTCTGTACATAAAAAATAATAAAT [XGTACX_site3122] | 9.26
16 | TCCTCATTTTATCATACACACTTGTTTATATGGGTG [CACACA_site4650] | 9.37
17 | ACCCATAAAAATTATGCACACTTAATAAAGCGAAAT [CACACA_site5722] | 9.42
18 | ATAATTTATTTTAAAAGTACTCAATTTGCTTTTCTC [XGTACX_site5749] | 9.04
19 | TTTACAAAAAATTATACACACACGTACAGATAAATA [CACACA_site4678] | 9.89
20 | TATATTTATTATAATTGTACATAAAATAAACTAAGA [XGTACX_site4318] | 9.19
21 | AAATAATTAAACATATGTACATATTATATATATATA [XGTACX_site6774] | 9.23
22 | AATATTTATATTTAGTGTACAGAAATAAAAAAAAAA [XGTACX_site6066] | 9.2

Row | Sequence | gcPBM binding intensity (ln)
23 | ATATACATTTAAATGTGTACATAATAAAATAAAAAA [XGTACX_site8170] | 9.35
24 | CAAAAAAAAAAAAAAACACACATTAAATTAGAAAGA [CACACA_site7271] | 9.54
25 | GCTAATTTATTTTGCAGTACATATATAATAATATAT [XGTACX_site478] | 9.12
26 | TTTTTATTTAATAGTTGTACATTGAAAAATATGTAT [XGTACX_site3025] | 9.03
27 | TGATTAAATAAATATATATATTTATATATTATACAG [CACACA_negctrl_site1596] | 8.93
28 | TATATATATATATATGTGCACTGGACATATTTTTAT [GTGCAC_site9721] | 9.3
29 | CAAATAAATATTAAAAGTACACACAGATACACTAAT [XGTACX_site3749] | 9.88
30 | GCTCTATCAAAAAAATGTACACATATTATCATTCAT [XGTACX_site143] | 9.27
31 | AATTAAAATAGTAATACACACTTCATAGGAAATGAT [CACACA_site5045] | 9.33
32 | TATGTATCAAATAAATGTACATATATATATATATAT [XGTACX_site2189] | 9.07
33 | AAATTTTTTATGAACACACAAATACACGCACTCAAA [CACACA_site7286] | 9.66
34 | AATAATAAAATAAAGGCATGCACAATATGCTATAAA [TGCATGCA_site645] | 9.55
35 | TAAAATATATAAAACTGTACATTTTAAAGGCACAAC [XGTACX_site8342] | 9.56
36 | CTGAAGGAAAAAGAAAGTACTTTTTTTTTTTTGAAG [XGTACX_site5973] | 8.61
37 | CCTTTATTTTATATGTGTACTAAATTGTATATATAT [XGTACX_site8717] | 9.33
38 | ATGTTTTATAAAAGGCGTACACATATGCTTAAGTAA [XGTACX_site6232] | 9.37
39 | AAAAAAAAAATATCATGTACAAATATAATAAAATTT [XGTACX_site3896] | 9.27
40 | TATAGCAAAAAATTTACACACATGTTTTTTCTATAC [CACACA_site325] | 9.57
41 | GGCATTTTATGAAGTAGTACCATAAATATTAAAGAT [XGTACX_site5287] | 9.27
42 | TTTTTACTATTTATATGACTAAAAATATATTGAATA [CACACA_negctrl_site188] | 8.93
43 | TAAATTAATAAACAAGTGCATATATATATATATATA | 9.2
44 | GTCATATTAATATGTACACACATATTTATATTTATA [CACACA_site6798] | 9.49

Row | Sequence | gcPBM binding intensity (ln)
45 | TTTTATGTAACATCACGTACTTATATTTAAGTATTC [XGTACX_site7459] | 9.26
46 | CAAGCACACGGACACACACACACACGCGCACGCACA [CACACA_site6307] | 10.2
47 | CAATTTATTTTTATTACACACTATCCAAGTAATTTC [CACACA_site7402] | 9.32
48 | AATATAATATAATGCACACATAAAACAAAAAAAAAA [CACACA_site3012] | 9.79
49 | AAATATATCATACAAAGTACTTGGAATTAATATATA [XGTACX_site8907] | 9.14
50 | TCTTTTAAATAACAACATAAATAAATAAATAAATAA [GTGCAC_negctrl_site319] | 9.01
51 | GTTGATACATGAAGCTGTACATAATATTTGTCATTT [XGTACX_site8628] | 9.42
52 | TAATTTTTCCAACTTTGTACAGATATATTAATAAAA [XGTACX_site7856] | 8.86
53 | TTTTTTTTTTTTTGCACACACCATATTTATAGAAAT [CACACA_site5772] | 9.59
54 | TAAAATTAATTTCTGTTGCACTTATTATTAATTAAC | 9.27
55 | ATATTATACCCGTGTACACATTATAACCATATATAA [CACACA_site5933] | 9.46
56 | TATATGTATAGAAAATGTACATATAAATATATATAT [XGTACX_site3420] | 9.26
57 | CATTATTTACCGCCGTGTACGTAATGAGAAATTAAA [XGTACX_site4662] | 9
58 | TTATTTCAAATTAATTTACACACTTCATACTAAAAG [CACACA_site9039] | 9.26
59 | TAATAAAAAAAGTGCACACACATAATATTTATATAT [CACACA_site7548] | 9.6
60 | TTTATTTATTATTAAAGTACTAAATTACATTATTAT [XGTACX_site6624] | 9.05
61 | TATTTAATTACATGAACACACATTAGATATTTTTAA [CACACA_site7405] | 9.16
62 | TCTTGTATATACAGTAGTACTAAAAATTATTAAATA [XGTACX_site7896] | 9
63 | ACATACAAGAATTAAACACACACAAAATATAAATTC [CACACA_site8985] | 10.1
64 | TGTTTTTTGTTCTTTACAAAAAAAAAAAAAAAAAAA [GTGCAC_negctrl_site61] | 8.33
65 | TTATGTTGTAAATGCACACATACAAATACAGATACA [CACACA_site4876] | 9.5
66 | GAAAACAAATATGTAGCACACATTCACATAATATAT [CACACA_site8731] | 9.48

Row | Sequence | gcPBM binding intensity (ln)
67 | ATAAATATAAAAATTTGTACATATATAGGTATAGGT [XGTACX_site1735] | 9.57
68 | ATTATAATGGTAAAGTGTACAAATTTTTATTACACC [XGTACX_site5274] | 9.26
69 | TATCAATATTAAAAAGTGCAAAATAAAATATAAAAT [GTGCAC_site9486] | 9.58
70 | TATATTATATATTGGGGTACATATATATAAATATAA [XGTACX_site2296] | 9.04
71 | TAATTTCTTATGTATTGTACATATAATATATGATAT [XGTACX_site4898] | 9.12
72 | AAAATAAATAGATAAGCACACAAGCATATAGACATA [CACACA_site7958] | 9.72
73 | AATATATTTATGCTCATGCACTTTTTTTTTTTTTTT [GTGCAC_site9654] | 9.35
74 | TATATTTACATTGTAACACACATGAAATATTTATAT [CACACA_site6178] | 9.32
75 | ATGTACATTTTTTTCACACATACATTAATTTATGAG [CACACA_site5801] | 9.27
76 | TATGTTATATTATAAGGATAAATTTTGATTATATAA [TGCATGCA_negctrl_site600] | 8.83
77 | AGAATAAAAAGGAACACACACACACCCATATATATA [CACACA_site3590] | 10.1
78 | TAGACTAATCCCAAAAGTACAGAAAAATTATATTAT [XGTACX_site8663] | 9.29
79 | TTATTAAATTTTTTTTGTACTTATATATATATATAT [XGTACX_site2443] | 9.25
80 | ATTATTATATAGTGTGCATGCAATATTAATAAAACC [TGCATGCA_site245] | 9.67
81 | TATGAATGTATATGTTGTACATATAAATATTTATAT [XGTACX_site1146] | 9.22
82 | TAAGCTTGTAACAGTTTACACACTAATATTTATAAA [CACACA_site3907] | 9.23
83 | AATAAATATATTACATATATGTGTAGTATTTTTTTA [TGCATGCA_negctrl_site268] | 9.25
84 | ATAGTAAACGAAATAAAAAGATTAGCATAATATCCT [CACACA_negctrl_site1730] | 9.47
85 | ATTGTTTATATTGATTGTACTCATTTTTTTTTTATT [XGTACX_site1946] | 9.85
86 | TCCTGTGATTATATAACACACATTATTGCTTATAAG [CACACA_site1518] | 9.41
87 | ATATATTATATATATTACAACTTAAGAATATACATA [TGCATGCA_negctrl_site371] | 9.16
88 | ATTATATATATATATACACACACACCCTAAAAATAT [CACACA_site8463] | 9.9
